# From article PMC4336329 (PLoS ONE, 2015)
# The campaign covered roughly 310,000 compounds. About 2,200 (0.71%) showed an effect of 50% or more. The effect is printed as a negative number. This is one part of the list.
# Biological target: human ether-à-go-go-related gene (hERG) potassium channel (human, UniProt Q12809)
# Assay: primary screen, population patch clamp on CHO cells stably expressing hERG
# Chain of human ether-à-go-go-related gene (hERG) potassium channel (Q12809 whole entry, looked up): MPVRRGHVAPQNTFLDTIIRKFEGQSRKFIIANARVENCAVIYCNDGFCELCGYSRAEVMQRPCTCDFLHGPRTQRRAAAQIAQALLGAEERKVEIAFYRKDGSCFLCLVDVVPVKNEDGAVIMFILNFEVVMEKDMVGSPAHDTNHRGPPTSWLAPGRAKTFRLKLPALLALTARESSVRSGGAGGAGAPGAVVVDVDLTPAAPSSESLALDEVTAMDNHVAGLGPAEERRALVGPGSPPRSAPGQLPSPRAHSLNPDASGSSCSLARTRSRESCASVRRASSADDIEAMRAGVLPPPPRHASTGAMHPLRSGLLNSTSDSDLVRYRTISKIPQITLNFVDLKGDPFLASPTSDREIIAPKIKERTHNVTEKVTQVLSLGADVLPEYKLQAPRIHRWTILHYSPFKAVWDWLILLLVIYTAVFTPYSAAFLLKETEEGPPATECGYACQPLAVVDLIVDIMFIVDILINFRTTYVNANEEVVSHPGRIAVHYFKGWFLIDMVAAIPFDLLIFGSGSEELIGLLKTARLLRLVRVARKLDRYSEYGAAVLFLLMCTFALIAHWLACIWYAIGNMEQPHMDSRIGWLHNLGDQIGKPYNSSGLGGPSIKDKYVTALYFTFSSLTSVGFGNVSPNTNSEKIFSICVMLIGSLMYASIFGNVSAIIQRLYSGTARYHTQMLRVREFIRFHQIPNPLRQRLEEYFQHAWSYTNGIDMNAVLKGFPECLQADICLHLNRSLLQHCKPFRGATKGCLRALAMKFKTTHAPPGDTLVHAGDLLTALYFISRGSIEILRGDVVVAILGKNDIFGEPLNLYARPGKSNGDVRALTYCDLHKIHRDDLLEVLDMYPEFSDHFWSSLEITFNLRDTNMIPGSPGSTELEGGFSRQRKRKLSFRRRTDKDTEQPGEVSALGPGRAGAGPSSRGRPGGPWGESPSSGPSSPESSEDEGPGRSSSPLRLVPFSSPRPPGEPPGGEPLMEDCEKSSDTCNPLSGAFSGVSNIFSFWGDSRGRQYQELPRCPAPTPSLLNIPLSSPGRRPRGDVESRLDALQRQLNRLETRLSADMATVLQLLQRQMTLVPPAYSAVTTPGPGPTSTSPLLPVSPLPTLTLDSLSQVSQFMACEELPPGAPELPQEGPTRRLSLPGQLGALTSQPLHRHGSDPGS
row,SMILES,"hERG current change (%, negative = inhibition) at 1uM"
1,CCCCCCc1cc2cc(C(=O)NCc3ccccc3)c(=N)oc2cc1O,8.45%
2,COc1ccccc1CNC(=O)COC(=O)CC1CC2CCC1C2 (stereo not shown),9.87%
3,Cc1ccccc1CN1CCN(C(=O)c2cc(-c3ccncc3)nc3ccccc23)CC1,-16.6%
4,O=S(=O)(c1cccc(F)c1)N1CCN(c2ncnc3scc(-c4ccc(F)cc4)c23)CC1,5.52%
5,CCCC(c1nnnn1CC1CCCO1)N1CCN(c2cc(Cl)ccc2C)CC1.Cl (stereo not shown),5.82%
6,CSc1ncccc1C(=O)NCCc1ccccc1F,13.9%
7,CC(CNc1ccccc1O)C(=O)O (stereo not shown),12.5%
8,COc1ccc(CC(=O)OCC(=O)Nc2ccc(Br)cc2)cc1,4.4%
9,Cc1ccc(C(=O)CNc2ccc(Cl)cc2)cc1,16.4%
10,COc1cc(/C=C2/C(=N)N3C(=NC2=O)SN=C3S(=O)(=O)C(C)C)ccc1OS(=O)(=O)c1ccccc1,16.8%
11,O=C(Nn1c(=S)[nH]c2ccccc2c1=O)c1ccncc1,14.3%
12,COc1ccc(C(=O)CC(=O)c2ccc(F)cc2)cc1,15.9%
13,C=CC(=O)NC(C)(C)Cc1ccccc1,6.71%
14,CCCS(=O)(=O)N1CCCC(C(=O)NCCCOC(C)C)C1 (stereo not shown),5.11%
15,Cc1ccc(NC(=O)C2CCN(S(=O)(=O)c3cccs3)CC2)cc1C,-43.6%
16,FC(F)(F)c1ccccc1NC1=NCCCS1,7.14%
17,COc1ccc(S(=O)(=O)N(CC(C)C)CC(C)C)c2cccnc12,-12.8%
18,CC1CN(C(=O)CCNC(=O)c2ccccc2Cl)CC(C)O1 (stereo not shown),6.75%
19,CCOC(=O)c1c(CN2CCCCC2C)oc2ccc(OC)cc12.Cl (stereo not shown),-31.1%
20,O=C(Nc1ccc(Cl)cc1)OCc1cn(-c2ccc(Cl)cc2)nn1,0.63%
21,CN1CCC(=O)N([C@H](COc2ccccc2)Cc2ccccc2)CC1,-8.2%
22,CC(=O)Nc1ccc(NC(=O)CSc2nnc(NC(=O)C3CC(=O)N(c4ccccc4)C3)s2)cc1 (stereo not shown),5.54%
23,Cc1ccc(C)c(N2CCN(C(=O)CCCCn3c(=O)[nH]c4ccccc4c3=O)CC2)c1,6.84%

row,SMILES,"hERG current change (%, negative = inhibition) at 1uM"
1,CCn1nc(Cc2cccc3ccccc23)c(C#N)c1N,-8.03%
2,CC(=O)c1cc(C#N)c(N2CCCC2)nc1C,15.4%
3,Nc1c(Cl)ncnc1N/N=C/c1ccncc1,16.5%
4,O=C(Cc1c(Cl)cccc1Cl)Nc1ccc(S(=O)(=O)Nc2ncccn2)cc1,12.8%
5,COc1ccc(N(Cc2cc3cc(OC)ccc3[nH]c2=O)C(=O)c2cccnc2)cc1,7.07%
6,COCCn1c(C)cc(C(=O)CSc2nc3ccccc3o2)c1C,4.79%
7,O=C(NC1CCCCC1)C1CCN(c2nnnn2-c2ccccc2)CC1,3.39%
8,COc1cc(OC)c(C(=O)CCCN2CCCC2)c(OC)c1.Cl,4.46%
9,COc1ccc(CNC(=O)c2ccc[nH]2)cc1Cl,11.9%
10,COc1ccccc1N1CCN(C(=O)c2ccncc2)CC1,3.51%
11,Cc1ccc(-c2c(C(=O)N/N=C/c3ccc(C)o3)nnn2-c2nonc2N)cc1,17.9%
12,Cn1cnnc1SCC(=O)Nc1sc2c(c1C(N)=O)CCC2,13.3%
13,Cc1ccc(S(=O)(=O)Nc2ccc(O)c3ccccc23)c(C)c1,10.5%
14,COc1ccc(Cc2nc3ccccc3n2CC(=O)N/N=C/c2ccc(C)cc2O)cc1OC,11.4%
15,NC(=O)CCC(NS(=O)(=O)c1ccc(Cl)cc1)C(=O)NCc1ccc(Cl)cc1 (stereo not shown),-3.5%
16,COC(=O)/C(C#N)=C1/SC=C(C)N1c1ccccc1,1.4%
17,CCCOC(=O)C(C)n1cnc2scc(-c3ccc(C)cc3)c2c1=O (stereo not shown),12.5%
18,CCOC(=O)N1CCC(NC(=O)Cn2cccc2C(=O)c2ccccc2C)CC1,10.2%
19,O=C(c1ccc(Cl)cc1)C(Cn1cncn1)C(Sc1ccccc1)c1ccccc1 (stereo not shown),9.35%
20,COc1cccc(C2c3[nH]c4ccccc4c3C[C@H]3C(=O)N(C)CC(=O)N23)c1 (stereo partly shown),-1.14%
21,COC(=O)c1ccccc1NC(=O)C1CCCN(S(=O)(=O)c2ccccc2)C1 (stereo not shown),-1.53%
22,COc1ccc(COCCN2CCN(S(=O)(=O)c3ccccc3)CCC2=O)cc1,5.1%
23,O=C(CSc1nnc(-c2cccnc2)n1CCc1ccccc1)NCc1ccccc1,-8.23%

row,SMILES,"hERG current change (%, negative = inhibition) at 1uM"
1,CCCCC(=O)c1ccc(O)cc1,-11.4%
2,O=C(Nc1nc(-c2ccc3c(c2)OCCO3)cs1)c1ccc(S(=O)(=O)N2CCCCC2)cc1,20.9%
3,CCOC(=O)CNC(=O)CSc1nnc(COc2ccc(Cl)cc2)n1CC,10.8%
4,Cc1ccc(OCC(=O)OCC(=O)c2c(N)n(C)c(=O)n(C)c2=O)cc1C,-2.96%
5,Cc1occc1-c1nnc(SCC(=O)c2c[nH]c3ccccc23)n1C,12.1%
6,CCOc1ccc(C(=O)N2CCCN(C(=O)c3ccc(OCC)cc3)CC2)cc1,-69.3%
7,CCc1nnc(NC(=O)CCC(=O)N2CCC(Cc3ccccc3)CC2)s1,-12.3%
8,COc1ccc(NC(=O)Nc2c(SC)nsc2SC)cc1,14.6%
9,CCN(C(=O)COC(=O)Cc1ccc(F)cc1)c1c(N)n(Cc2ccccc2)c(=O)[nH]c1=O,4.1%
10,COc1ccccc1N1C(=O)C(=O)N(C)C1=O,17.2%
11,O=C(O)CNC(=S)N(Cc1ccccc1F)C1CCCCC1,8.71%
12,O=C(/C=C/c1cccc(Cl)c1)NCCc1ccccc1,6.8%
13,O=C(Nc1ccc(Cl)cc1C(F)(F)F)c1ccccc1,12%
14,Cc1cc(C)cc(N(CC(=O)NC2CCCC2)C(=O)CNC(=O)c2cccs2)c1,13.8%
15,COc1ccc(NC(=O)N2C[C@@H]3C[C@@H](C2)c2cccc(=O)n2C3)cc1,10.9%
16,Cc1ccc(S(=O)(=O)N(CC(=O)c2ccc(Cl)cc2)C(=O)N2CCN(C)CC2)cc1,17%
17,Cl.N=c1ccn(Cc2ccc(F)cc2)cc1,15%
18,CCCCC(=O)Nc1nnc(S(=O)(=O)N(CC)c2ccccc2)s1,19%
19,COC(=O)CN1C(=O)Nc2ccc(Br)cc2C1c1ccccc1 (stereo not shown),10.2%
20,COC(=O)c1ccc(CNC(=O)N2CCN(S(=O)(=O)c3ccc(C)cc3)CC2)cc1,15.7%
21,COc1ccc2c(c1)C(=O)N(c1ccc(C)cc1)C(=O)C2,14.1%
22,O=C(NCCN1CCOCC1)c1ccc(Cl)c(S(=O)(=O)N2CCOCC2)c1,11.7%
23,Cn1ncc2c(N3CCN(c4ccccc4F)CC3)ncnc21,11.6%

row,SMILES,"hERG current change (%, negative = inhibition) at 1uM"
1,CC(=O)N1CCN(C(=S)c2ccc(-c3ccc(Cl)cc3)o2)CC1,9.21%
2,COc1cc(C(=O)N2C[C@@H]3CCC[C@H]2C3)ccc1OC1CCN(C(C)=O)CC1,22.9%
3,OCC1CCCN(C(=S)NCCc2ccccc2)C1 (stereo not shown),5.71%
4,O=C(Cn1ccccc1=O)c1ccc(Cl)cc1,17.8%
5,CCn1c(CC(=O)Nc2ccccc2)nnc1SCC(=O)Nc1ccccc1C(=O)OC,15.1%
6,O=C(CNC(=O)c1ccc(Br)cc1)NC1=NCCS1,10.3%
7,Cc1nnc(C)n1/N=C/c1ccccc1,11.3%
8,C=CCn1c(SCc2cccnc2)nnc1-c1ccncc1,4.24%
9,CC(C)C[C@@H](CSc1ccc(Br)cc1)N1CCN(CC(C)C)CCC1=O,-21.1%
10,Cc1oc(C(N)=O)nc1-c1ccccc1,16.2%
11,COc1cccc(CNC(=O)C2CCCN(S(=O)(=O)c3cnc[nH]3)C2)c1 (stereo not shown),-4.42%
12,CC(=O)N1CCc2cc(S(=O)(=O)NC(C(=O)Nc3nc(C)cs3)C(C)C)ccc21 (stereo not shown),9.73%
13,COc1ccccc1NC(=O)CSc1nncn1-c1ccccc1,14.8%
14,Cc1ccc(/C=C2/C(=O)N=C(N)N2C)s1,9.03%
15,C=CCNC(=S)NNC(=O)c1cc(-c2cccnc2)nc2ccccc12,16.5%
16,CCN(CC)C(=O)c1ccc2c(c1)N(Cc1ccccc1)C(=O)CS2=O (stereo not shown),9.17%
17,CCN1C(=O)CC(NNC(=O)c2ccc(Cl)cc2)C1=O (stereo not shown),13.5%
18,O=C1CN=C(c2ccccc2)c2ccccc2N1Cc1ccc(C(F)(F)F)cc1,3.04%
19,O=C1NC(=S)NC(=O)C1C/C=C/c1ccccc1,7.81%
20,CCS(=O)(=O)c1nc(S(=O)(=O)c2ccc(Cl)cc2)c(N2CCc3ccccc3C2)s1,16.9%
21,Cc1ccc(NC(=O)CSc2nn(-c3ccc(Cl)cc3)c(=S)s2)cc1S(=O)(=O)N(C)C,6.46%
22,CCN1CCN(CCCN(Cc2ccco2)C(=S)Nc2cc(Cl)ccc2C)CC1,-10.5%
